# Data as given in the supplement of paper PMC4723716.
# ± gives the uncertainty stated by the source. Over roughly 9,900 compounds, “viability index relative to DMSO control” has its median near 1; the lowest 2% begin near 0.85. The list shows a part of the results.
# Test system: Plasmodium falciparum NF54 stage V gametocytes
# Assay: viability index relative to DMSO control (fraction); higher = less gametocyte killing
# Conditions: 2.5 µM, incubation time: 72 h
# Outline: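 Viability index is the count of red-stained particles in a well divided by the plate mean of solvent-only wells. Particles of 20–70 µm2 were counted in one imaged field per well after one to two hours with 3 µl of 2.5 µM MitoTracker Red CMXRos and 0.13% saponin. Before staining, P. falciparum NF54 stage V gametocytes in serum-free medium (0.75% gametocytemia, 1.25% hematocrit, 10 µl, 1,536-well plates) were kept with compound at 2.5 µM for 72 hr at 37°C under low oxygen.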
# [1] = library set: Broad Institute DOS
SMILES,viability index [1],viability index (library set: Broad Institute Blood Stage)
CCCNC(=O)C[C@H]1CC[C@@H]2[C@H](COC[C@H](O)CN2C(=O)Nc2ccc(Cl)c(Cl)c2)O1,1.16 ± 0.013,–
COC(=O)C[C@H]1CC[C@@H]2[C@H](COC[C@H](O)CN2S(=O)(=O)c2cn(C)cn2)O1,1.12 ± 0.035,–
O=C(C[C@H]1C[C@@H]2c3cc(NC(=O)C4CCOCC4)ccc3O[C@@H]2[C@H](CO)O1)NCCN1CCCCC1,1.05 ± 0.029,–
COCCNC(=O)[C@H]1[C@H](CO)[C@H]2Cn3c(cccc3=O)[C@@H]1N2Cc1cccc(Cl)c1,1.03 ± 0.079,–
COc1ccc2c3c([nH]c2c1)[C@H](CO)N(C[C@]31CN(Cc2ccccc2)C1)C(=O)c1cccnc1,0.931 ± 0.031,–
O=C(C1CCOCC1)N1CC(=O)N2[C@H](C1)[C@H](c1ccc(C#CCc3ccccc3)cc1)[C@@H]2CO,1.09 ± 0.14,–
Cc1noc(C)c1NC(=O)Nc1ccc2c(c1)C(=O)N([C@@H](C)CO)C[C@H](C)[C@H](CN(C)S(=O)(=O)c1ccc(F)cc1)O2,0.98 ± 0.039,–
Cc1ccc(S(=O)(=O)N2C[C@H]3[C@@H](c4ccccc42)[C@@H](CO)N3Cc2cccnc2)cc1,0.972 ± 0.064,–
O=S(=O)(c1ccccc1)N1CC2(C1)[C@H](c1ccccc1)[C@H](CO)N2CC1CCOCC1,1.06 ± 0.1,–
C/C=C/c1ccc2c(c1)O[C@@H](CN(C)C(=O)Nc1ccc(OC)cc1)[C@@H](C)CN([C@@H](C)CO)S2(=O)=O,0.9731 ± 0.0091,–
CCC(=O)Nc1ccc2c(c1)C(=O)N(C)C[C@H](OC)[C@H](C)CN(Cc1nccs1)[C@@H](C)CO2,1.076 ± 0.0096,–
Cc1cccc(S(=O)(=O)N[C@@H]2CC[C@H](CCNC(=O)Nc3cc(F)ccc3F)O[C@@H]2CO)c1,1.07 ± 0.046,–
COc1ccc2c3c([C@H](CO)N(CC4CC4)C[C@]33CN(C3)C(=O)CC3CC3)n(C)c2c1,0.938 ± 0.14,–
CCS(=O)(=O)N1C[C@@]2(C1)CN(CC1CCOCC1)[C@H](CO)c1c2c2ccc(OC)cc2n1C,0.985 ± 0.037,–
C/C=C/c1ccc([C@H]2[C@@H](CO)N(C(=O)c3cnccn3)C23CN(C(=O)C2CCC2)C3)cc1,1.06 ± 0.014,–
CC(=O)NC[C@H]1[C@@H](c2ccc(-c3cccnc3)cc2)[C@@H](CO)N1C(=O)CC1CC1,1.03 ± 0.12,–
COc1ccc2c3c([C@H](CO)N(Cc4cc(OC)cc(OC)c4)C[C@]33CCN(CC3)C(=O)Nc3c(C)noc3C)n(C)c2c1,0.854 ± 0.04,–
C[C@@H]1CN([C@H](C)CO)C(=O)Cc2cc(NC(=O)c3ccncc3)ccc2O[C@H]1CN(C)C(=O)Nc1ccc(F)cc1,0.944 ± 0.12,–
CO[C@@H]1CN(C)C(=O)c2ccc(NS(=O)(=O)c3ccc(C)cc3)cc2OC[C@H](C)N(C)C[C@@H]1C,1.09 ± 0.012,–
CCCNC(=O)N1CC2(C1)[C@H](c1ccccc1)[C@@H](CO)N2C(=O)c1cccnc1,1.04 ± 0.019,–
COCCNC(=O)C[C@H]1CC[C@@H]2[C@H](COC[C@H](O)CN2Cc2ccc(Cl)c(Cl)c2)O1,1.13 ± 0.039,–
O=C(C[C@@H]1CC[C@H]2NC[C@@H](O)COC[C@@H]2O1)N1CCc2ccccc2C1,1.12 ± 0.068,–
CCCNC(=O)C[C@H]1CC[C@@H]2[C@H](COC[C@H](O)CN2C(=O)c2ccc(F)cc2)O1,1.04 ± 0.098,–
C[C@@H]1CNC(=O)[C@H](Cc2ccc(C(F)(F)F)cc2)CCn2nncc2COC1,1.03 ± 0.017,–

SMILES,viability index [1],viability index (library set: Broad Institute Blood Stage)
C[C@@H]1CN([C@H](C)CO)C(=O)c2cccc(N(C)C)c2O[C@@H]1CN(C)C(=O)Nc1ccc(F)cc1,0.857 ± 0.19,–
COCC#Cc1ccc([C@H]2[C@@H](CO)N3C(=O)CN(C(=O)c4ccncc4)C[C@@H]23)cc1,1.09 ± 0.031,–
O=C(C[C@@H]1C=C[C@H](NC(=O)Nc2ccccc2F)[C@H](CO)O1)NCc1ccc(-c2ccccc2)cc1,1.06 ± 0.13,–
C/C=C/c1ccc2n(c1=O)C[C@H]1[C@H](CO)[C@@H](C(=O)NCC)N(Cc3cccc(F)c3)[C@@H]21.C/C=C\c1ccc2n(c1=O)C[C@H]1[C@H](CO)[C@@H](C(=O)NCC)N(Cc3cccc(F)c3)[C@@H]21,1.096 ± 0.0075,–
CC(C)C#Cc1ccc([C@@H]2[C@@H](CO)N3C(=O)CN(C(=O)Cc4ccccc4)C[C@H]23)cc1,1.04 ± 0.039,–
CN1c2ccc(Br)cc2[C@@H]2[C@@H](CCN2C(=O)CN2CCOCC2)[C@H]1CO,1.1 ± 0.059,–
O=C(NCc1cc(F)cc(F)c1)[C@@H]1[C@@H](CO)[C@@H]2Cn3c(cccc3=O)[C@H]1N2C(=O)c1cnccn1,1.04 ± 0.042,–
CCCC(=O)Nc1ccc2c(c1)OC[C@@H](C)N(S(=O)(=O)c1cn(C)cn1)C[C@H](C)[C@H](OC)CN(C)C2=O,1.04 ± 0.036,–
COc1ccc(S(=O)(=O)Nc2ccc3c(c2)C(=O)N([C@H](C)CO)C[C@@H](C)[C@@H](CN(C)S(=O)(=O)c2ccc(Cl)cc2)OCCCC[C@@H](C)O3)cc1,0.533 ± 0.11,–
CC(C)CC#Cc1ccc([C@H]2[C@H](CO)N3C(=O)CN(C(=O)c4ccccn4)C[C@@H]23)cc1,1.06 ± 0.037,–
O=C(C[C@@H]1CC[C@@H](NC(=O)C2CCOCC2)[C@H](CO)O1)NCC1CCCCC1,1.13 ± 0.11,–
CNC[C@@H]1OCCCC[C@@H](C)Oc2ccc(NS(=O)(=O)c3ccc(F)cc3)cc2C(=O)N([C@H](C)CO)C[C@@H]1C,1.11 ± 0.02,–
CCC(=O)N1[C@@H](CO)[C@@H]2c3ccccc3N(S(=O)(=O)c3ccc(F)cc3)C[C@@H]21,1.02 ± 0.053,–
O=C(C[C@H]1C[C@H]2c3cc(NC(=O)C4CCOCC4)ccc3O[C@H]2[C@H](CO)O1)NCCN1CCCCC1,1 ± 0.046,–
CCCNC(=O)[C@H]1[C@H](CO)[C@H]2Cn3c(ccc(C4=CCCCC4)c3=O)[C@H]2N1Cc1ccccc1F,0.916 ± 0.027,–
CO[C@H]1CN(C)C(=O)c2cc(NS(=O)(=O)c3ccc(Cl)cc3)ccc2OC[C@H](C)N(C(=O)NC(C)C)C[C@@H]1C,1.06 ± 0.04,–
COc1ccc(C[C@@H]2CCc3cnnn3COC[C@H](CC(C)C)NC2=O)cc1,1.02 ± 0.11,–
Fc1cccc(-c2ccc([C@@H]3[C@H]4CNC[C@@H]3N4Cc3ccccn3)cc2)c1,1 ± 0.015,–
COc1ccc2c3c([nH]c2c1)[C@@H](CO)N(Cc1ccncc1)C[C@]31CCN(CC2CCOCC2)CC1,1.01 ± 0.07,–
CN(C)C(=O)[C@H]1[C@H](CO)[C@H]2Cn3c(ccc(C4=CCCC4)c3=O)[C@@H]1N2S(=O)(=O)c1cn(C)cn1,1.02 ± 0.083,–
N#C[C@H]1N[C@@H](CO)[C@@H]1c1ccc(-c2cccc(F)c2)cc1,1.07 ± 0.12,–
C[C@H]1CN([C@@H](C)CO)C(=O)Cc2cc(N(C)C)ccc2O[C@@H]1CN(C)C(=O)NC1CCCCC1,0.883 ± 0.058,–
CCCNC(=O)N[C@H]1C=C[C@H](CC(=O)N2CCN(C)CC2)O[C@H]1CO,0.9004 ± 0.0063,–
O=C(c1cccc(F)c1)N1CC(=O)N2[C@H](CO)[C@H](c3ccc(-c4cccnc4)cc3)[C@H]2C1,–,0.771 ± 0.058

SMILES,viability index [1],viability index (library set: Broad Institute Blood Stage)
O=C(c1cccnc1)N1CC2(C1)[C@H](c1ccccc1)[C@@H](CO)N2C(=O)CC1CC1,1.1 ± 0.046,–
CO[C@H]1CN(C)C(=O)c2cc(NC(=O)Nc3cccc(Cl)c3)ccc2OC[C@@H](C)N(C(=O)Nc2c(C)noc2C)C[C@@H]1C,1.04 ± 0.042,–
C[C@@H]1CCCCO[C@H](CN(C)S(=O)(=O)c2ccc(F)cc2)[C@H](C)CN([C@H](C)CO)C(=O)c2cc(N(C)C)ccc2O1,1.04 ± 0.18,–
O=C(C1CCC1)N1C[C@@H]2N[C@H](C1)[C@H]2c1ccc(/C=C/c2ccccc2)cc1,1.02 ± 0.042,–
CN(C)CC(=O)N[C@@H]1CC[C@H](CCNC(=O)C2CCC2)O[C@H]1CO,1.05 ± 0.18,–
Cc1noc(C)c1NC(=O)N1C[C@@H](O)COC[C@@H]2O[C@H](CC(=O)N3CCc4ccccc4C3)CC[C@H]21,1.08 ± 0.11,–
C[C@@H](NC(=O)C[C@@H]1CC[C@H]2[C@@H](COC[C@@H](O)CN2Cc2ccc(C(F)(F)F)cc2)O1)c1ccccc1,1.13 ± 0.07,–
N#C[C@@H]1[C@H](c2ccccc2-c2ccccc2)[C@H](CO)N1C(=O)Cc1ccncc1,1.08 ± 0.13,–
C/C=C/c1ccc([C@@H]2[C@@H](CO)N(C(=O)c3ccccc3)C23CN(C(C)=O)C3)cc1,1.09 ± 0.056,–
COc1ccc2c3c([C@@H](CO)N(C)C[C@]33CCN(CC3)C(=O)NC(C)C)n(C)c2c1,1.04 ± 0.012,–
COCCN(C[C@@H]1[C@@H](c2ccccc2)[C@H](CO)N1C(=O)C1CC1)C(C)=O,1.02 ± 0.022,–
COc1ccc2c3c([C@H](CO)N(C[C@]33CN(Cc4ccncc4)C3)C(=O)CC3CC3)n(C)c2c1,1.11 ± 0.096,–
CN1C(=O)c2cc(NC(=O)Cc3cccs3)ccc2OC[C@H]2O[C@@H](CC(=O)NCc3ccc(-c4ccccc4)cc3)CC[C@H]21,1.09 ± 0.09,–
C[C@@H]1CN([C@@H](C)CO)C(=O)c2cccc(NC(=O)Nc3ccc(C(F)(F)F)cc3)c2O[C@@H]1CN(C)S(=O)(=O)c1cn(C)cn1,1.04 ± 0.037,–
Cc1noc(C)c1S(=O)(=O)N(C)C[C@H]1Oc2c(NS(=O)(=O)c3cn(C)cn3)cccc2C(=O)N([C@@H](C)CO)C[C@H]1C,0.958 ± 0.086,–
C/C=C/c1ccc([C@H]2[C@H]3CNC[C@@H]2N3C(=O)Nc2ccccc2Cl)cc1,1.11 ± 0.077,–
CCS(=O)(=O)N1C[C@@]2(C1)CN([C@H](CO)c1[nH]c3cc(OC)ccc3c21)S(=O)(=O)c1cccc(OC)c1,1.04 ± 0.12,–
C[C@H](CO)N1C[C@H](C)[C@@H](CN(C)Cc2cccc(C(=O)O)c2)OCc2ccccc2-c2ccccc2C1=O,1.04 ± 0.024,–
CCC(=O)N1C[C@]2(CN(C2)C(C)=O)c2c([nH]c3cc(OC)ccc23)[C@@H]1CO,1.01 ± 0.069,–
C[C@H](CO)N1C[C@H](C)[C@H](CN(C)S(=O)(=O)c2ccc(Cl)cc2)Oc2ccc(NS(=O)(=O)c3cccs3)cc2C1=O,1.02 ± 0.083,–
CCS(=O)(=O)Nc1ccc2c(c1)C(=O)N(C)[C@H]1CC[C@@H](CC(=O)N3CCN(C)CC3)O[C@H]1CO2,1.05 ± 0.039,–
C[C@@H]1CCCCO[C@@H](CN(C)S(=O)(=O)c2ccc(Cl)cc2)[C@@H](C)CN([C@H](C)CO)C(=O)c2cc(NC(=O)Nc3ccc(C(F)(F)F)cc3)ccc2O1,1.07 ± 0.025,–
